Drawing on the supplement of paper PMC12462457, this text covers cell count for 30 compounds.

Where a name gives a salt, the structure may show the parent alone. ± gives the standard deviation of the averaged measurements. This is one part of the list.

For this assay, the system named is OVCAR8. Description: cell count relative to DMSO vehicle (fold change); OVCAR8 is a high-grade serous ovarian cancer line and CX-5461 an RNA polymerase I inhibitor; higher = more surviving senescent cells (less killing). The note with it: senescence inducer: CX-5461 3 µM 48 h, then 6 d recovery (CX senescent), exposure time 24 h.

As to `Cc1cc(O)c(-c2ccc([C@@H](C)CN(C)C)cc2)c2c1[nH]c(=O)c1sccc12` [OTS964 (hydrochloride)], the cell count reads like this: (compound dose 1 µM) 0.77 ± 0.014; (compound dose 5 µM) 0.639 ± 0.053.
Taken in the same sequence, the figures for `CCOc1cc(C(C)(C)C)ccc1C1=N[C@@](C)(c2ccc(Cl)cc2)[C@@](C)(c2ccc(Cl)cc2)N1C(=O)N1CCN(CCCS(C)(=O)=O)CC1` were 1.02 ± 0.098 and 1.01 ± 0.087.
On the same counts, the results for `C[C@H]1Oc2cc(cnc2N)-c2c(nn(C)c2C#N)CN(C)C(=O)c2ccc(F)cc21` [Lorlatinib] are 1.07 ± 0.16 and 1.02 ± 0.17.
Taken in the same sequence, the figures for `O=C1NC(=O)[C@@H](c2cn3c4c(cccc24)CCC3)[C@@H]1c1c[nH]c2ccccc12` [Tivantinib] were 1.13 ± 0.066 and 0.997 ± 0.08.
With `CCc1cnn2c(NCc3ccc[n+]([O-])c3)cc(N3CCCC[C@H]3CCO)nc12` [Dinaciclib], the cell count worked out at 0.99 ± 0.047 (compound dose 1 µM) and 1.03 ± 0.17 (compound dose 5 µM).
Consider `COc1ccc(-c2cc(=O)c3c(OC)c(OC)c(OC)cc3o2)cc1OC` [Sinensetin], for which the cell count by setting is: (compound dose 1 µM) 0.959 ± 0.13; (compound dose 5 µM) 0.965 ± 0.086.
Taken in the same sequence, the figures for `CC(C(=O)Nc1cccc(/N=C/c2c(O)ccc3ccccc23)c1)c1ccccc1` (stereo not given) [Salermide] were 1.08 ± 0.15 and 1.03 ± 0.15.
Taken in the same sequence, the figures for `COc1cccc(-c2cc(F)ccc2[C@H]2Cc3nc(N)nc(C)c3C(=O)N2)n1` were 1.09 ± 0.17 and 1.03 ± 0.19.
For `COc1nc(N)nc2c1ncn2[C@@H]1O[C@H](CO)[C@@H](O)[C@@H]1O` [Nelarabine], the cell count reads like this: (compound dose 1 µM) 1.22 ± 0.23; (compound dose 5 µM) 1.1 ± 0.03.
Taken in the same sequence, the figures for `O=C(Nc1cccc(Nc2ncc(Br)c(NCCc3cnc[nH]3)n2)c1)N1CCCC1` were 1.08 ± 0.023 and 1.24 ± 0.0064.
On the same counts, the results for `C[C@H](CCC(=O)NCCS(=O)(=O)O)[C@H]1CC[C@H]2[C@@H]3[C@@H](O)C[C@@H]4C[C@H](O)CC[C@]4(C)[C@H]3CC[C@]12C` [Tauroursodeoxycholate (Sodium)] are 1.11 ± 0.19 and 1.1 ± 0.073.
Taken in the same sequence, the figures for `Cc1nc(-c2nc(-c3ccc(OC(F)(F)F)cc3)no2)nn1Cc1cccc(N2CCC(S(C)(=O)=O)CC2)c1` were 1.14 ± 0.17 and 1.12 ± 0.069.
The compound `O=C1CCC(N2C(=O)c3ccccc3C2=O)C(=O)N1` (stereo not given) yielded a cell count (compound dose 1 µM) of 1.19 ± 0.19 and a cell count (compound dose 5 µM) of 1.07 ± 0.011.
Taken in the same sequence, the figures for `Clc1ccc(C(Cn2ccnc2)OCc2csc3c(Cl)cccc23)c(Cl)c1` (stereo not given) [Sertaconazole (nitrate)] were 1.13 ± 0.11 and 1.03 ± 0.11.
For `C[C@H]1[C@H](OC(=O)CCC(=O)O)O[C@@H]2O[C@@]3(C)CC[C@H]4[C@H](C)CC[C@@H]1[C@@]24OO3` [Artesunate], the cell count came to 1.07 ± 0.18 (compound dose 1 µM) and 1.17 ± 0.15 (compound dose 5 µM).
Taken in the same sequence, the figures for `COC(=O)[C@H](CCSC)NC(=O)c1ccc(NC[C@@H](N)CS)cc1-c1ccccc1` [FTI-277 (hydrochloride)] were 1.08 ± 0.018 and 1.16 ± 0.14.
Taken in the same sequence, the figures for `O=C1CCC(N2Cc3c(C#CCCCNC(=O)c4ccc(NC(=O)[C@@H]5NC6(CCCCC6)[C@@]6(C(=O)Nc7cc(Cl)ccc76)[C@H]5c5cccc(Cl)c5F)cc4)cccc3C2=O)C(=O)N1` (stereo not given in full) were 1.02 ± 0.033 and 1.03 ± 0.092.
On the same counts, the results for `CC[C@@H]1/C=C(\C)C[C@H](C)C[C@H](OC)[C@H]2O[C@@](O)(C(=O)C(=O)N3CCCC[C@H]3C(=O)O[C@H](/C(C)=C/[C@@H]3CC[C@@H](O)[C@H](OC)C3)[C@H](C)[C@@H](O)CC1=O)[C@H](C)C[C@@H]2OC` [Ascomycin] are 0.88 ± 0.11 and 1.11 ± 0.18.
`COc1ccc(N2C(=O)/C(=C\c3ccc([N+](=O)[O-])s3)SC2=S)cc1`: the cell count was 1.03 ± 0.17 (compound dose 1 µM) and 1.05 ± 0.16 (compound dose 5 µM).
On the same counts, the results for `Cc1cc(Nc2cc(N3CCN(C)CC3)nc(/C=C/c3ccccc3)n2)n[nH]1` [ENMD-2076 L-(+)-Tartaric acid] are 0.923 ± 0.12 and 0.812 ± 0.26.
Taken in the same sequence, the figures for `Cc1cc(Nc2cc(N3CCN(C)CC3)nc(/C=C/c3ccccc3)n2)n[nH]1` were 1.07 ± 0.052 and 0.542 ± 0.069.
Taken in the same sequence, the figures for `C/C=C(/C)C(=O)O[C@H]1[C@H](OC(C)=O)[C@@]2(CO)C(CC1(C)C)C1=CCC3[C@@]4(C)CCC(O[C@@H]5O[C@H](C(=O)O)[C@@H](O[C@@H]6O[C@H](CO)[C@@H](O)[C@H](O)[C@H]6O)[C@H](O)[C@H]5O[C@@H]5O[C@H](CO)[C@@H](O)[C@H](O)[C@H]5O)[C@](C)(CO)C4CC[C@@]3(C)[C@]1(C)C[C@H]2O.C/C=C(\C)C(=O)O[C@H]1[C@H](OC(C)=O)[C@@]2(CO)C(CC1(C)C)C1=CCC3[C@@]4(C)CCC(O[C@@H]5O[C@H](C(=O)O)[C@@H](O[C@@H]6O[C@H](CO)[C@@H](O)[C@H](O)[C@H]6O)[C@H](O)[C@H]5O[C@@H]5O[C@H](CO)[C@@H](O)[C@H](O)[C@H]5O)[C@](C)(CO)C4CC[C@@]3(C)[C@]1(C)C[C@H]2O` (stereo not given in full) [Escin] were 1.14 ± 0.19 and 0.951 ± 0.28.
For `COc1ccc(C2CC(c3ccccc3)=NN2c2ccc(S(N)(=O)=O)cc2)cc1` (stereo not given), the cell count reads like this: (compound dose 1 µM) 1.02 ± 0.19; (compound dose 5 µM) 1.06 ± 0.061.
On the same counts, the results for `CN(C)c1cccc(-c2c3c(=O)n(-c4ccccc4Cl)[nH]c3cc(=O)n2C)c1` [Setanaxib] are 1.11 ± 0.083 and 1.06 ± 0.16.
Turning to `CCCCOc1nc(N)c2c(n1)N(Cc1cccc(CN3CCCC3)c1)CC(=O)N2` [Vesatolimod], the cell count runs as follows: (compound dose 1 µM) 1.01 ± 0.057; (compound dose 5 µM) 0.992 ± 0.051.
With `CCC(Sc1nnc2c(n1)[nH]c1ccccc12)C(=O)N1c2ccccc2Sc2ccccc21` (stereo not given) [Inauhzin], the cell count reads like this: (compound dose 1 µM) 1.1 ± 0.17; (compound dose 5 µM) 1.064 ± 0.0014.
On the same counts, the results for `CCCCCCCCCCCC1=C(O)C(=O)C=C(O)C1=O` [Embelin] are 1.11 ± 0.21 and 0.97 ± 0.24.
Regarding `CC(=O)N[C@H](Cc1ccc(O)cc1)C(=O)N[C@H](CCCN=C(N)N)C(=O)N[C@H](Cc1ccccc1)C(N)=O`, the cell count is, setting by setting: (compound dose 1 µM) 1.14 ± 0.15; (compound dose 5 µM) 1.02 ± 0.17.
As for `CCCCCOC(=O)Nc1nc(=O)n([C@@H]2O[C@H](C)[C@@H](O)[C@H]2O)cc1F` [Capecitabine], the cell count runs as follows: (compound dose 1 µM) 1.23 ± 0.22; (compound dose 5 µM) 1.01 ± 0.11.
For `CN(C)CC[C@H](CSc1ccccc1)Nc1ccc(S(=O)(=O)NC(=O)c2ccc(N3CCC(C)(C)CC3)cc2)cc1[N+](=O)[O-]`, the cell count (compound dose 1 µM) turned out to be 1.09 ± 0.11 and the cell count (compound dose 5 µM) came to 1.14 ± 0.023.
